Experimental data from PMC4336329 (PLoS ONE, 2015).
Hit rate of the full screen: of about 310,000 compounds, about 2,200 (0.71%) showed an effect of 50% or more. The effect is printed as a negative number. The list shows a part of the results.

Molecular target: human ether-à-go-go-related gene (hERG) potassium channel (human, UniProt Q12809)
Test: primary screen, population patch clamp on CHO cells stably expressing hERG

Sequence of human ether-à-go-go-related gene (hERG) potassium channel (Q12809 whole entry, looked up): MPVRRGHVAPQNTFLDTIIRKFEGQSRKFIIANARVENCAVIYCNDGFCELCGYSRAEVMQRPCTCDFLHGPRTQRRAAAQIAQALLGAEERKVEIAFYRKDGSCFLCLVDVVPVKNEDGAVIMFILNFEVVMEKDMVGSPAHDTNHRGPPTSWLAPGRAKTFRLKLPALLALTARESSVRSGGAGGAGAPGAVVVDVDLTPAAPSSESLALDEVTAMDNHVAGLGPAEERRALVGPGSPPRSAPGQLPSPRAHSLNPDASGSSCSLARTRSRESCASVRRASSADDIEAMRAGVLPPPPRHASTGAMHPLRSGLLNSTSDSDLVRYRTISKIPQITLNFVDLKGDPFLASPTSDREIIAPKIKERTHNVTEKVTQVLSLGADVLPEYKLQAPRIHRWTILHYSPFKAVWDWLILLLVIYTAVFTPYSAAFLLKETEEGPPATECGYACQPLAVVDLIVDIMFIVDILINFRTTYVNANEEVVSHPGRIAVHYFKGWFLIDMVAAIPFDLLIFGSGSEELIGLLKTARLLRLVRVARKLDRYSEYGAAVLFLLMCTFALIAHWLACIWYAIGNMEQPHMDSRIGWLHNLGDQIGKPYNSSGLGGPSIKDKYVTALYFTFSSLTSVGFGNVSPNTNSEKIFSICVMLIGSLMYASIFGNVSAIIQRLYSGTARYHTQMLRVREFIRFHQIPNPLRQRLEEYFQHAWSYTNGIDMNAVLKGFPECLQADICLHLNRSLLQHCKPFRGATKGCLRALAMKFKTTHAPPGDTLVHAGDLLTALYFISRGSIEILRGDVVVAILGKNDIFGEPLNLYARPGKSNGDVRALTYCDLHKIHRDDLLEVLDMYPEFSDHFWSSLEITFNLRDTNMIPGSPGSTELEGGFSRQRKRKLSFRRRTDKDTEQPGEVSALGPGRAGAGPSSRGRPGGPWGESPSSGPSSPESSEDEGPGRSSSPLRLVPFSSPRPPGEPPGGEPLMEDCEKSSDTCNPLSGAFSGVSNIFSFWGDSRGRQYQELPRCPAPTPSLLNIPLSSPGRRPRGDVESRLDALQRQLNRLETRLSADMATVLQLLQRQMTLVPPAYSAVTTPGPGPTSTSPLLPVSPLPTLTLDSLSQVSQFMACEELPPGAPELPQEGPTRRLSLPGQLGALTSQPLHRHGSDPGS

Row | Structure (SMILES) | hERG current change (%, negative = inhibition) at 1uM
1 | COc1cccc(Nc2nnc(SCn3nnc4ccccc4c3=O)s2)c1 | 11%
2 | Cc1ccc(CNS(=O)(=O)c2ccc3c(c2)n(C)c(=O)n3C)cc1 | 11.2%
3 | CN(CC(=O)Nc1ccccc1C(=O)N1CCCC1)S(=O)(=O)c1ccc(Cl)cc1 | -9.34%
4 | Cn1c(SCC(=O)N2CCCCC2)nc2c([nH]c3ccccc32)c1=O | 5.1%
5 | Cc1ccc(-c2ccc(/C=C(\C#N)C(N)=S)n2C)cc1 | 16.6%
6 | COc1cccc(/C=C/C(=O)OCCN2C(=O)c3ccccc3C2=O)c1 | 12%
7 | Cc1cc(C)nc(/N=C(/NC(=O)Nc2cccc(Cl)c2)Nc2ccccc2)n1 | 22%
8 | NS(=O)(=O)c1ccc(CCNC(=O)c2ccc(Cl)cc2[N+](=O)[O-])cc1 | 13.6%
9 | O=C(c1ccco1)N1CCN(Cc2cc(=O)c(OCc3ccccc3F)co2)CC1 | 0.103%
10 | COc1cccc(NC(=O)N2CCCC2C(=O)NC2CCCCC2)c1 (stereo not drawn) | 10.8%
11 | CC(C)CN1CCN(Cc2cnc(N3CCOCC3)s2)CC1CCO (stereo not drawn) | 4.61%
12 | Cc1ccc(-c2cc(C(=O)N3CCCCCC3)no2)cc1 | 10%
13 | O=C(NCc1cccnc1)c1cc2nc(-c3cccs3)cc(C(F)(F)Cl)n2n1 | -19.8%
14 | Clc1ccc(CO/N=C2\CCCc3nonc32)cc1 | 12.1%
15 | Cc1ccc(OCC(=O)NNC(=O)C(C)Sc2ncnc3sc(C)c(C)c23)cc1 (stereo not drawn) | 12.5%
16 | Cc1cc(C(=O)Nc2nc3c(s2)CCCC3)no1 | 5.45%
17 | COc1ccc(Cl)cc1S(=O)(=O)n1ccnc1C(C)C | 7.93%
18 | CC(C)(C)c1csc(NC(=O)CSc2nc3ccccc3c(=O)[nH]2)n1 | 7.87%
19 | CCOc1ccc(N2C(=O)C3Sc4[nH]c(=O)sc4C(c4ccc(OC)c(OC)c4)C3C2=O)cc1 (stereo not drawn) | 6.03%

Row | Structure (SMILES) | hERG current change (%, negative = inhibition) at 1uM
20 | O=C(N/N=C/c1cccc(Cl)c1)C(c1ccncc1)N1CCOCC1 (stereo not drawn) | 13.9%
21 | COc1ccc(C2CC(=O)C(C(c3ccc(O)cc3)C3C(=O)CC(c4ccc(OC)cc4)CC3=O)C(=O)C2)cc1 (stereo not drawn) | 6.73%
22 | O=C(c1cccc(-c2ccc(O)cc2)c1)N1CCOCC1 | 9.2%
23 | COc1ccc(Cl)cc1C(=O)Nc1ccc2nc3n(c(=O)c2c1)CCCC3 | -51.8%
24 | Cc1ccc(S(=O)(=O)NCC(=O)N(CC(=O)NCC2CCCO2)Cc2ccco2)cc1 (stereo not drawn) | 11.6%
25 | Cc1ccc(N2C(=O)C(Cl)=C(N3CCCCCC3)C2=O)c(C)c1 | 19.2%
26 | O=C(c1cccc(Cl)c1)N1CCC(N2CCC(C(=O)N3CCCC3)CC2)CC1 | -17.2%
27 | CC1=C[C@@H]2c3cccc4[nH]cc(c34)C[C@H]2N(C)C1 | 11.2%
28 | CCOP(=O)(OCC)C(NC(=O)CC(C)C)C(Cl)(Cl)Cl (stereo not drawn) | 16.4%
29 | C/C(=N\NC(=O)c1ccc(F)cc1)c1ccccn1 | 15%
30 | Cc1cccc(C)c1OCC(=O)NNC(=O)c1ccoc1C | 2.33%
31 | Cc1ccc(S(=O)(=O)c2nc(S(C)(=O)=O)sc2N2CCCCC2C)cc1 (stereo not drawn) | 5.68%
32 | O=C(O)CSc1ccc(NC(=O)Nc2ccccc2F)cc1 | 16.1%
33 | COc1ccc(N2CCN(C(=O)CN(C3CCCCC3)S(C)(=O)=O)CC2)cc1 | 7.1%
34 | CC1CCN(C(=O)N[C@@H](Cc2ccccc2)C(=O)O)CC1 | 17.9%
35 | O=C(CSc1nnc(-c2ccc(S(=O)(=O)N3CCCC3)cc2)n1CC1CCCO1)NC1CC1 (stereo not drawn) | -2.9%
36 | O=C(CCS(=O)(=O)c1ccc(Br)cc1)Nc1ccc(Cl)cc1F | 11%
37 | CN(C(=O)c1ccccc1)c1nccnc1C#N | 6.67%
38 | Cn1c(N)c(C(=O)COC(=O)c2ccccc2C(=O)c2ccccc2)c(=O)n(C)c1=O | -0.867%

Row | Structure (SMILES) | hERG current change (%, negative = inhibition) at 1uM
39 | CN(CCNC(=O)CN1CCN(Cc2ccccc2Cl)C1=O)Cc1ccccc1 | -0.949%
40 | O=C(c1noc2c1CCCCC2)N1CCOCC1 | 5.13%
41 | C/C(=N\NC(=O)c1ccoc1C)c1ccccc1 | -0.872%
42 | NC(=O)CSc1nnc2n(-c3ccccc3)c(=O)c3c4c(sc3n12)CCCCC4 | 9.62%
43 | Cc1ccc(-n2nnnc2SCC(=O)Nc2cc(C)on2)c(C)c1 | 10.2%
44 | CC(C)(C)C(=O)CSc1nnc(-c2cccs2)n1CC1CCCO1 (stereo not drawn) | -1.53%
45 | C=CCN(CC=C)CCOc1ccccc1.O=C(O)C(=O)O | 12.5%
46 | Cc1ccc(C2CC2c2n[nH]c(=S)n2-c2cccc(Cl)c2)cc1 (stereo not drawn) | 10.9%
47 | Nc1ccc2oc3ccc(N)cc3c(=O)c2c1 | 17.5%
48 | CCN1C(=O)N[C@@H](c2ccc(Br)cc2)C(C(=O)OC)=C1C | 8.57%
49 | Cc1ccc2c3c(cccc13)-c1ccccc1C2=O | 17%
50 | COc1ccc(CCNC(=O)CCCn2c(SCC#N)nc3ccccc3c2=O)cc1OC | 4.46%
51 | CCN(CCn1cccn1)Cc1c(C(=O)N2C[C@@H](C)O[C@@H](C)C2)nc2ccc(Cl)cn12 | 19.9%
52 | S=C(c1ccc(-c2ccc(Cl)cc2Cl)o1)N1CCCC1 | 15.6%
53 | CC(C)CN(C(=O)CN(C)C(=O)Cc1ccc(Cl)cc1)c1c(N)n(CC(C)C)c(=O)[nH]c1=O | 11.3%
54 | CCn1c(SCC(=O)Nc2cccc(C)n2)nnc1-c1ccco1 | 0.773%
55 | O=C(Cn1cc(C(=O)C(F)(F)F)c2ccccc21)NCc1ccco1 | 10.1%
56 | CC1CCCC(NC(=O)CCNS(=O)(=O)c2ccc(Br)cc2)C1C (stereo not drawn) | 3.02%
57 | C=CCNC(=S)NNC(=O)c1cc(Cl)ccc1OC | 15.1%
